# Measurements as given in paper PMC4336329 (PLoS ONE, 2015).
# In all, about 310,000 compounds went through this assay and about 2,200 (0.71%) showed an effect of 50% or more. The effect is printed as a negative number. Some of the results follow.
# Biological target: human ether-à-go-go-related gene (hERG) potassium channel (human, UniProt Q12809)
# Assay: primary screen, population patch clamp on CHO cells stably expressing hERG
# Sequence of human ether-à-go-go-related gene (hERG) potassium channel (Q12809 whole entry, looked up): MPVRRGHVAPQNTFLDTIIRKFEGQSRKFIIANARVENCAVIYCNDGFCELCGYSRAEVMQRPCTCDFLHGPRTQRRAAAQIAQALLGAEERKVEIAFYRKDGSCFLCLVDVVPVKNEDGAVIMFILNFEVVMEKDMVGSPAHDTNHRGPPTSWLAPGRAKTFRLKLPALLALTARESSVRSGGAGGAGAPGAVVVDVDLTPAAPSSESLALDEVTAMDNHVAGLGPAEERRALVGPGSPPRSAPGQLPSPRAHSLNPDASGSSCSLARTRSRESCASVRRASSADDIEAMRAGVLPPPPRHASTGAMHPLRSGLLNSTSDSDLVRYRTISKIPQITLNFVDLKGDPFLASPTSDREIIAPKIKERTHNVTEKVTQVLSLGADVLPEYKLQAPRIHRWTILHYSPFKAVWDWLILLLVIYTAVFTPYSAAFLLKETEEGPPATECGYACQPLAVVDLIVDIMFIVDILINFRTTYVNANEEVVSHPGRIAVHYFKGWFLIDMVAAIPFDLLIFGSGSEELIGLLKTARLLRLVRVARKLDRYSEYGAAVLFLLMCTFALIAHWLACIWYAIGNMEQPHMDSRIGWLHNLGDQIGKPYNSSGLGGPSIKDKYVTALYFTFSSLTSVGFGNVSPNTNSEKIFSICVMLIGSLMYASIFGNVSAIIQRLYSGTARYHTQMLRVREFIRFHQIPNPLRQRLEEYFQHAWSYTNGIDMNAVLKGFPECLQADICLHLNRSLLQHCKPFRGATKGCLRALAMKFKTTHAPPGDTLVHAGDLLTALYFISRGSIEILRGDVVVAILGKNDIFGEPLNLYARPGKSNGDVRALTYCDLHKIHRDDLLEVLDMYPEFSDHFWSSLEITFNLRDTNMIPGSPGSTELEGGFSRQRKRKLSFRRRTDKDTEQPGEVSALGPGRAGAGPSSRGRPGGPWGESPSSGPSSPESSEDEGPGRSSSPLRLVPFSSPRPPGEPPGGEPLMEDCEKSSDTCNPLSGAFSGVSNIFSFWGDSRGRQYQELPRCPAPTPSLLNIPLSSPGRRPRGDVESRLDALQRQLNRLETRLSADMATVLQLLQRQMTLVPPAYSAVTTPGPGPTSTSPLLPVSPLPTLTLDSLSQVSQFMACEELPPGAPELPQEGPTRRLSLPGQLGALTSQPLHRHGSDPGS
row,Compound,"hERG current change (%, negative = inhibition) at 1uM"
1,N#Cc1ccccc1OCC(=O)OCC(=O)NC1CC1,8.31%
2,CCCCNC(=O)Nc1ccc2c(c1)N(C)C(=O)c1ccccc1S2,17.1%
3,COc1ccc(S(=O)(=O)c2cnc3ccccc3n2)cc1,2.73%
4,O=C(COC(=O)c1cccnc1Cl)Nc1ccc2c(c1)OCO2,11.8%
5,CCOc1ccccc1NC(=O)C(Sc1ccccc1)c1ccccc1 (stereo not drawn),14.2%
6,CCCN(CC1CC1)C(=O)COC(=O)c1ccc2c(c1)C(=O)N(c1ccc(OCC)cc1)C2=O,-42.4%
7,CCOCCCNC(=O)c1ccc(-n2c(=S)[nH]c3ccccc3c2=O)cc1,4.47%
8,Cc1cc(=O)[nH]c(SCC(=O)N2CCN(S(=O)(=O)c3ccccc3)C2)n1,10.6%
9,O=C(/C=C/c1ccc(F)cc1)Nc1nc2ccccc2[nH]1,2.62%
10,COCCC(=O)N1CCC(Oc2ccc(C(=O)N3CCCCC3COC)cc2)CC1 (stereo not drawn),8.65%
11,CCc1ccccc1NC(=S)NN,16.6%
12,O=C(CC1SC(=O)N(Cc2ccc(Cl)cc2)C1=O)Nc1nccs1 (stereo not drawn),3.52%
13,O=C(Cc1ccccc1)NCCCN1CCN(CCCNC(=O)Cc2ccccc2)CC1,11.8%
14,CCOC(=O)C1(Cc2cccc(Cl)c2)CCCN(C(=O)c2ccnn2C)C1 (stereo not drawn),11.1%
15,O=C1N=c2ccccc2=C/C1=C\c1c(O)[nH]c(=S)[nH]c1=O,12.3%
16,CN(C)/C=C1\C(=O)Oc2ccccc2C1=O,14.5%
17,O=C(N=C1SC2CS(=O)(=O)CC2N1c1ccc(F)cc1)C1CC1 (stereo not drawn),15.2%
18,CN(C)CCP(=O)(c1ccccc1)c1ccccc1,4.25%
19,Cc1ccc2c(c1)c1c(n2CC(O)Cn2nc(C)c(Br)c2C)CCCC1 (stereo not drawn),13.9%
20,CCCCN(CCCC)S(=O)(=O)c1ccc(NC(=O)CN2CCOCC2)cc1,-11.1%
21,O=C(COc1ccc(Br)cc1CO)N1CCCc2ccccc21,12.1%
22,CN(CC(=O)OCC(=O)NCC(F)(F)F)S(=O)(=O)c1ccc(Cl)cc1,9.2%
23,N#CCSc1nnc(-c2sc3ccccc3c2Cl)o1,-1.64%

row,Compound,"hERG current change (%, negative = inhibition) at 1uM"
1,COc1ccccc1CNC(=O)c1ccc(OCc2c(C)noc2C)c(OC)c1,11.5%
2,CC1=CCC2C(=O)N(c3nc4ccccc4n3C)C(=O)C2C1 (stereo not drawn),2.22%
3,CC1(c2cccc(Br)c2)NC(=O)N(CC(=O)Nc2ccc3c(c2)OCO3)C1=O (stereo not drawn),8.29%
4,COc1ccc(OC)c(NC(=O)CCc2nnc3ccc(NCc4ccco4)nn23)c1,6.34%
5,O=C(CSc1nnc(NC(=O)C2CC(=O)N(c3ccccc3)C2)s1)NCC1CCCO1 (stereo not drawn),11.1%
6,NS(=O)(=O)c1cc(Cl)c(NC(=O)COC(=O)c2ccccn2)c(Cl)c1,12.3%
7,CN(C)CCOc1ccc2ccccc2c1.O=C(O)C(=O)O,10.4%
8,CC(=O)N(c1ccccc1)c1nc(/C=C/C(=O)Nc2c(C)cc(C)cc2C)cs1,11.1%
9,COc1ccccc1NC(=O)N1CCCC1C(=O)NCc1ccccc1Cl (stereo not drawn),12%
10,Cc1cc(C)c2c(n1)nn1c(N3CCN(c4ccccc4)CC3)cc(C)nc21,18.2%
11,O=C(NCCO)Nc1ccc(Cl)cc1,20.1%
12,Cc1onc(-c2ccccc2Cl)c1C(=O)Nc1cc(=O)n(C)c(=O)n1C,15.3%
13,Cc1cccc2cc(COC(=O)c3cccc([N+](=O)[O-])c3)c(=O)[nH]c12,17.4%
14,COc1ccc(C(=O)Nc2ccnn2C2CCN(Cc3cn(C)nc3C)CC2)cc1,16.3%
15,CC(C)(C)c1cccc(Cn2nnc3ccccc32)c1O,17.6%
16,CC(/C=N/Nc1nnc(C)c(=O)[nH]1)=C\c1ccccc1,1.28%
17,COc1ccc(NC(=O)c2cc3c(=O)n4ccccc4nc3n2C)c(OC)c1,4.51%
18,Cc1cc2nc(-c3cccnc3SCC(=O)NCc3ccco3)[nH]c2cc1C,3.82%
19,Cc1cc(Cl)c(S(=O)(=O)NC2CCCC2)cc1OCC(=O)NC1CCCCC1,-1.3%
20,CCCOc1ccc(N2C(=O)CC(N3CCN(S(=O)(=O)c4ccccc4)CC3)C2=O)cc1 (stereo not drawn),9.59%
21,O=C(NCC1CC1)Nc1ccccc1,14.6%
22,COC(=O)c1ccccc1NC(NC(=O)c1ccco1)C(=O)c1ccc(C)cc1 (stereo not drawn),4.56%
